Experimental data as given in paper PMC4336329 (PLoS ONE, 2015).
In all, about 310,000 compounds went through this assay and about 14,000 (4.5%) showed an effect of 50% or more. The effect is printed as a negative number. The list shows a part of the results. Where no end group is shown, it is not given here.

Molecular target: human ether-à-go-go-related gene (hERG) potassium channel (human, UniProt Q12809)
Test: primary screen, population patch clamp on CHO cells stably expressing hERG
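Also: peak tail current of the secondary pulse compared with the same well before compound.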

Sequence of human ether-à-go-go-related gene (hERG) potassium channel (Q12809 whole entry, looked up): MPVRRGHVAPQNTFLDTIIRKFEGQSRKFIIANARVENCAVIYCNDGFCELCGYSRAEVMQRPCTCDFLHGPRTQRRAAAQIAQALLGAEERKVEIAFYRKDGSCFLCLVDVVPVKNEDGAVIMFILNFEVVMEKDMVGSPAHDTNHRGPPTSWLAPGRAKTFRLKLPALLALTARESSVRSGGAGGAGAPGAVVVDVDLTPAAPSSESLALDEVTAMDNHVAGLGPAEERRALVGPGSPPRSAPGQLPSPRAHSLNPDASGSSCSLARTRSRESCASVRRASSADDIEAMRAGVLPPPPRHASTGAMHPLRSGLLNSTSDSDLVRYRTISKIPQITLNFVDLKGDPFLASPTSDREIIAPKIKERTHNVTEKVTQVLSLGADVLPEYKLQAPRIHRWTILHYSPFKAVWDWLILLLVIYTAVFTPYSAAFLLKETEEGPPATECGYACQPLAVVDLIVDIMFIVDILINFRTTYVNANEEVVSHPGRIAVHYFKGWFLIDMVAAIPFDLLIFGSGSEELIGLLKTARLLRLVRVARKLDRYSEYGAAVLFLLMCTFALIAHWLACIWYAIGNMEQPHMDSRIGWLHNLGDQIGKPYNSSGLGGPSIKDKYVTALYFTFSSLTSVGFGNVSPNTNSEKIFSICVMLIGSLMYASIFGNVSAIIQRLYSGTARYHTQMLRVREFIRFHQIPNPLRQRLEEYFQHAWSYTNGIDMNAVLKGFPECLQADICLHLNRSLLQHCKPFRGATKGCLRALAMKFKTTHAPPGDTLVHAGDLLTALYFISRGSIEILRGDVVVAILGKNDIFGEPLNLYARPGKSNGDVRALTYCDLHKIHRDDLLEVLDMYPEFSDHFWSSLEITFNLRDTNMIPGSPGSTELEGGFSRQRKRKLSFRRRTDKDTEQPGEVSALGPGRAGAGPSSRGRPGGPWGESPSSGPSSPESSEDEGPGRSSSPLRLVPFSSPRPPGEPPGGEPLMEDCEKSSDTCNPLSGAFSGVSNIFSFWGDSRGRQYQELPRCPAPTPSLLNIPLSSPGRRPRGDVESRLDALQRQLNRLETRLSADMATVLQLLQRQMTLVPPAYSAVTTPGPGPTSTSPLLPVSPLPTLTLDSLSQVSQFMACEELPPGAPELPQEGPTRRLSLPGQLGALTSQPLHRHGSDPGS

Compound | hERG current change (%, negative = inhibition) at 10uM [%]
Cc1sc2ncnc(Nc3ccc(O)cc3)c2c1C | 14.3
CC(=O)c1cc(C(=O)N2CCCC(CCC(=O)N(C)CCc3ccccn3)C2)cs1 (stereo not shown) | 8.94
COC(=O)c1ccc(/C=N/Nc2nc3ccccc3[nH]2)cc1 | 11.4
CC(NC(=O)C(C)(C)C)C(c1cccs1)N1CCOCC1 (stereo not shown) | -3.2
Cc1cc(C)n(-c2ccc(C(=O)N3CCN(S(=O)(=O)c4ccc(C(C)C)cc4)CC3)cc2)n1 | -18.4
O=C(NCc1ccco1)c1cc(-c2ccco2)on1 | 4.86
Cc1ccc(N(CCCCN2C(=O)c3ccccc3C2=O)C(=O)c2cccs2)cc1 | -67.3
O=C(Cc1c[nH]c2ccccc12)NCc1ccco1 | 3.9
COC(=O)c1ccc2c(=O)n(CCN3CCOCC3)c(SCC(=O)Nc3cccc(OC)c3)nc2c1 | -37.9
COc1ccc([N+](=O)[O-])cc1NC(=O)C1(c2ccc(OC)c(OC)c2)CCOCC1 | -14.4
CSCC[C@H](NC(=O)COc1ccc(Cl)cc1)c1nc2ccccc2[nH]1 | -56.5
O=C(Oc1cccc(-n2cnnn2)c1)c1sc2ccccc2c1Cl | 13.4
Cn1c(NCC2CCCO2)nc2c1c(=O)n(Cc1ccccc1)c(=O)n2C (stereo not shown) | -1.06
Cc1oc(-c2ccc(Cl)cc2)nc1CN1CCC(C(=O)NCc2cccnc2)CC1 | -65.9
COc1cccc(NC(=S)N2CCn3cccc3C2c2cccnc2)c1 (stereo not shown) | -22.4
C#CC(=O)N(c1cccc(OC)c1)C(C(=O)NC1CCCC1)c1cccs1 (stereo not shown) | -1.56
COc1cccc(C(=O)NCCS(=O)(=O)N(C)Cc2ccccc2)c1 | -27.3
Cc1ccc(S(=O)(=O)N2[C@@H](c3ccc(Cl)cc3)C(C(=O)O)=CC[C@H]2c2ccc(Cl)cc2)cc1 | 4.26
COc1ccc(N=C2CCS(=O)(=O)c3sccc32)cc1 | 15.1
Cc1cc(N2C(=O)C(O)=C(C(=O)c3ccco3)C2c2cccc(O)c2)no1 (stereo not shown) | 18.5
C=CCn1c(COc2cccc(C)c2C)nnc1SCC(=O)N1CCN(c2ccccc2)CC1 | -48.7
COc1ccccc1CNC(=O)COC(=O)c1cc(S(=O)(=O)N2CCOCC2)ccc1Cl | -40.1
C=C1c2ccc(C)cc2NC(=O)N1c1ccccc1 | -1.2
CC1CC(=O)N(CC(=O)NCc2ccco2)c2ccccc2S1 (stereo not shown) | -18.4
Cc1cccc(-n2nnnc2SCC(=O)Nc2cccc(S(N)(=O)=O)c2)c1 | 3.64
Cc1ccc(C)c(N2CCN(C(=O)CCCn3ncn4c(cc5occc54)c3=O)CC2)c1 | -63.4
COC(=O)c1ccc2c(=O)[nH]c(CSc3nc(C)cs3)nc2c1 | 22.7
CC(=O)Nc1cccc(C(=O)OC2CCOC2=O)c1 (stereo not shown) | -1.99

Compound | hERG current change (%, negative = inhibition) at 10uM [%]
CCc1ccc(NC(=O)NCCCN2CCCC2=O)cc1 | 0.255
RKDVY | 19.1
COc1cccc(CNC(=O)c2cccnc2Sc2ccc(Cl)cc2)c1 | 16.3
O=C(NNC(=S)NCc1ccc(Cl)cc1)c1ccc(Br)o1 | 24.9
Cc1ccc(S(=O)(=O)/N=C(\CN2CCOCC2)N2CCOCC2)cc1 | 29.2
CC(/C=N\NC(=O)Cn1cncn1)=C/c1ccc(C(C)C)cc1 | -14.9
CCOc1cc(CNCCN(C)C)c(Cl)cc1OCC(=O)NCCc1ccccc1.Cl | -10.8
CC(C)C(NS(=O)(=O)c1cccc2nsnc12)C(=O)NCc1ccco1 (stereo not shown) | 1.68
C[C@@H](C(=O)NCCCCCC(=O)O)n1nnc2ccccc2c1=O | 5.45
O=C1C=Cc2ccccc2/C1=C/c1[nH]c(=O)[nH]c1O | 7.87
CC(Oc1ccc(-c2ccccc2)c(F)c1)c1ccn(S(=O)(=O)c2ccc(F)cc2)n1 (stereo not shown) | 16
COc1ccc(N(CC(=O)NCc2ccco2)S(C)(=O)=O)c(OC)c1 | 16.6
CCN1CCN(c2cc(C)nc(-c3ccccc3O)n2)CC1 | -58.9
CC1C(=O)NN=C1C(=O)N/N=C\c1ccc(O)cc1O (stereo not shown) | 8.46
CCOC(=O)C(=O)c1csc(NC(=O)COc2ccc(N(C)S(=O)(=O)c3ccc(F)cc3)cc2)n1 | -6.13
CN(Cc1c(F)cccc1Cl)C(=O)c1ccc(NS(=O)(=O)c2ccc3[nH]c(=O)[nH]c3c2)cc1 | -7.03
CN(CC(=O)NCC1CCCCC1)S(=O)(=O)c1ccc(F)cc1 | 7.11
O=C(Nc1cn(-c2ccccc2)nc1-c1ccccc1)c1ccccc1 | 12.2
CC(=O)N1CCC(O)(c2cccc(C(F)(F)F)c2)CC1 | 12.7
CC(C)OC(=O)CN1C(=O)c2ccccc2C1=O | 11.2
O=C(CCc1nc2ccccc2c(=O)[nH]1)Nc1cccc(S(=O)(=O)N2CCOCC2)c1 | -5.63
O=C(C[n+]1cccc(CNC(=O)c2ccc(OC(F)F)cc2)c1)Nc1ccc(SC(F)F)cc1.[Cl-] | -41.1
C/C(=N\NC(=O)COc1ccc(C(C)(C)C)cc1)c1ccc2c(c1)OCCO2 | 17.6
O=c1c2c3nc4ccccc4nc3n(/N=C/c3ccncc3)c2ncn1-c1ccccc1 | 2.42
COc1ccc(-n2nc(C(=O)N(C)C3CCCCC3)c3ccccc3c2=O)c(OC)c1 | 6.22
O=c1cccccc1NN=C1CCCCC1 | 2.31
Cc1ccc(-n2c(Cc3ccccc3)nnc2SCC(=O)NNC(=O)Cc2ccccc2)cc1 | -1.22
